Data reported in publication PMC4344510 (Nucleic Acids Research, 2015).

Target: the molecule itself
Assay: crystal structure

B1: Sm domain of Escherichia coli Hfq ([…]) (domain or fragment)
chain: not shown
stoichiometry N: 6
